# This is one part of the list.
# B1: 80640421_80640541_171_3pUTR_ENSMUSG00000034994_ENSMUST00000047864|mouse|control|control (ssRNA)
# RNA: GGGAGUUCUACAGUCCGACGAUCGAUGCCAGCCUUGCACACAAGGGAGUCGGUCAGCGUGGACUUGCCGUGGUCCACAUGGGCGAUGACUGACAUGUUCCGGAUGUUGGCUUUCUUGUCCAUGAUGGCACGGAUCUGAUCUACCAACAGAGGAUUGAGCAUCA
# B2: chr6:150114741:150114742:+_ENSG00000120265_ENST00000367380|hu_mus|motif|central (ssRNA)
# RNA: GGGAGUUCUACAGUCCGACGAUCCCCCGAGGACAGGAGCAUUGGGUCAUCCUUUUUGACAUUAGUUAUUGAGUCAUCGGCGGGUUCUUUAAUGUGAUCAAUUCCAAUGACUUUUCCACUAUUUCCAACCAUCCGUGCAAAACACAACAGAGGAUUGAGCAUCA
# B3: 36950683_36950803_2544_CDS_ENSMUSG00000024811_ENSMUST00000025729|mouse|control|control (ssRNA)
# RNA: GGGAGUUCUACAGUCCGACGAUCGGCCAACAAUAAAGCACAAAGCUGUGUCCGUCCCUUUUGGGCUGCUUCAUGUAACGGUGUGAAAGCCCAUUUGUCCGUGGCAUUGACACACGCAUUGUACUUUAUCAGCAAAGCUGCUACCAACAGAGGAUUGAGCAUCA
# B4: chr2:187541933:187541934:+_ENSG00000138448_ENST00000261023|hu_hu|motif|central (ssRNA)
# RNA: GGGAGUUCUACAGUCCGACGAUCAAAAAAGCCCAUCCUGUACAUUACAAAUACCAAAACAGCCAGUAGCAACAAUCCUGCGGGAACUGCUAAAAUGAUCACCCACACAGGCACAGGCAUGGGCGCUGGCUGAAUGCCCCAGGUCAACAGAGGAUUGAGCAUCA
# B5: chr16:94651144:94651145:+_ENSMUSG00000040785_ENSMUST00000117648|mus_hu|mus_mus_mus_hu_True|28_48 (ssRNA)
# RNA: GGGAGUUCUACAGUCCGACGAUCAUUUUCUUGAAUCAAGUGGCGAAUAACAUAGUCCACUGCUUCAUUUAGAAAAUUUCUGCUAGAAAAGCAUGUUGUAUAGUCUUCCGUGCUCAGAACUUUCCAAGAAAGCAAUUCUUUGAGCAACAGAGGAUUGAGCAUCA
# B6: chr3:90056536:90056537:+_ENSMUSG00000052310_ENSMUST00000015467|mus_hu|motif|central (ssRNA)
# RNA: GGGAGUUCUACAGUCCGACGAUCUCCUUAUGUAUAGUGUCCAACCUCUGAUUCUAGCAGUCAAGUGUCUUCCCCAAUCCGGAUGUCCCCUGAUAUGUCUCUAGCGACUUGACCAUCUCUUGUUCCUUGGGACUGGGGCCAGCCCAACAGAGGAUUGAGCAUCA
# Target: T1, UNK ZnF1-3 (human, UniProt Q9C0B0 31-174)
# T1 sequence: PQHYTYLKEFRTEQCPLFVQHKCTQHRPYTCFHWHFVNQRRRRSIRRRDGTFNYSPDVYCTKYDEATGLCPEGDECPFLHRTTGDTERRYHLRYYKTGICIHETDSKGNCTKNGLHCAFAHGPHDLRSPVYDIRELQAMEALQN
# Test: nsRBNS (natural sequence RNA bind-n-seq); RBNS binding buffer (assumed for nsRBNS): 25 mM Tris pH 7.5, 150 mM KCl, 3 mM MgCl2, 0.01% Triton X-100, 500 ug/ml BSA, 20 U/ml SUPERase-In, 4 C; UNK is unkempt and MSI1 is Musashi-1; names of the RNAs are library labels; protein concentration not given here; high values mean tight binding
row,Binder,binding signal
1,B1,0.625 enrichment R
2,B2,0.934 enrichment R
3,B3,0.378 enrichment R
4,B4,1.21 enrichment R
5,B5,0.485 enrichment R
6,B6,0.659 enrichment R

# — paper PMC12136788
